Test results as given in publication PMC4336329 (PLoS ONE, 2015).
Screen size: about 310,000 compounds; about 14,000 (4.5%) showed an effect of 50% or more. The effect is printed as a negative number. The list shows a part of the results.

target: human ether-à-go-go-related gene (hERG) potassium channel (human, UniProt Q12809); test: primary screen, population patch clamp on CHO cells stably expressing hERG
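Note: peak tail current of the secondary pulse compared with the same well before compound.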

Sequence of human ether-à-go-go-related gene (hERG) potassium channel (Q12809 whole entry, looked up): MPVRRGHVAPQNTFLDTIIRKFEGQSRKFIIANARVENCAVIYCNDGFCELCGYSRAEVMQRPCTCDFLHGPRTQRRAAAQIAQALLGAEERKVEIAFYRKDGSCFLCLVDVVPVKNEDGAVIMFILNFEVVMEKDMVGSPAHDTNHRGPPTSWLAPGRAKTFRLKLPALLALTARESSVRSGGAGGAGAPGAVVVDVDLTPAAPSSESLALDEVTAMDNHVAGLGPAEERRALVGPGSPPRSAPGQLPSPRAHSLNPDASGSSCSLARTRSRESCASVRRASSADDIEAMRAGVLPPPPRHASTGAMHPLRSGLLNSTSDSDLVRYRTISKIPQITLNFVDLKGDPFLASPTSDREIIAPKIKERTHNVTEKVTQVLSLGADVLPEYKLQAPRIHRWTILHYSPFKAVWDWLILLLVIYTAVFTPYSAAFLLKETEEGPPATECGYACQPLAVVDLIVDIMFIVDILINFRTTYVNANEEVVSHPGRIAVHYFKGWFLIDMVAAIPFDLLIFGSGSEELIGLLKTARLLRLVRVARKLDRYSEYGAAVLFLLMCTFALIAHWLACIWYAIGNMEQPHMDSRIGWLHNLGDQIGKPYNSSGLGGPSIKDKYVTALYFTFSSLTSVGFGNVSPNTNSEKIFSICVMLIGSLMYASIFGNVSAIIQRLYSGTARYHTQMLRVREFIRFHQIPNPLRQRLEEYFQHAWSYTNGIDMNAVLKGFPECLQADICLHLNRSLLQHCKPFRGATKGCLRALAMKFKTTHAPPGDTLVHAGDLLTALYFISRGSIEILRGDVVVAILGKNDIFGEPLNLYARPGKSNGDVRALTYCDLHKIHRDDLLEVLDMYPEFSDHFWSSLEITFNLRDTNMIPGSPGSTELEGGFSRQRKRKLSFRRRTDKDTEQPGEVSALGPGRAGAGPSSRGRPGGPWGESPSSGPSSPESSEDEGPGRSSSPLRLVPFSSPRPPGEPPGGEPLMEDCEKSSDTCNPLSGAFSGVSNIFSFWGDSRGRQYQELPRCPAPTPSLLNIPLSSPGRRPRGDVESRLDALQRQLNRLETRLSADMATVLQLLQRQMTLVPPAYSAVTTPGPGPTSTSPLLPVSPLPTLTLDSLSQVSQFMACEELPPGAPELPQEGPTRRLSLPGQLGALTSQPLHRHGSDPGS

Row | Structure (SMILES) | hERG current change (%, negative = inhibition) at 10uM [%]
1 | COC(=O)c1sc(N)c(C(=O)OC)c1COC(=O)c1c(C)noc1C | -3.57
2 | COc1cc(C2NC(=O)NC(C)=C2C(=O)OCC2CCCO2)ccc1O (centres unmarked) | -3.63
3 | Fc1cccc(CN2CCC(Cc3ccccc3)CC2)c1 | 5.12
4 | COCCn1c(SCC#N)nnc1-c1ccc([N+](=O)[O-])cc1 | -30.8
5 | CCCSc1ncnc2sc(C)c(C)c12 | 16.5
6 | N#Cc1cccc(NC(=O)CC2CCCC2)c1 | 9.05
7 | CCOC(=O)N1CCN(C(=O)CNC(=O)C23CC4CC(CC(C4)C2)C3)CC1 | 21.3
8 | C=CC1CN2CCC1CC2[C@@H](OC(=O)c1ccc(OC)cc1)c1ccnc2ccccc12 (some centres unmarked) | -37.3
9 | CSc1nnc(C2CCCN2)n1C.Cl (centres unmarked) | 3.72
10 | Cc1cccc(C(=O)NCCC(=O)Nc2ccc(F)c([N+](=O)[O-])c2)c1 | -20.7
11 | O=C(CC1CCCCC1)NCc1nc(-c2ccccc2)no1 | 8.22
12 | Cc1cc(C)c(C#N)c(SCc2cn3ccccc3n2)n1 | -28.9
13 | Cc1oc2c(C)c(O)ccc2c(=O)c1-c1ccc2ccccc2n1 | 26.2
14 | CCOC(=O)N1CCC(NC(=O)Cn2cc3c(n2)CCC(C)C3)CC1 (centres unmarked) | 7.39
15 | O=c1oc2ccccc2n1CCCCCn1c(=O)oc2ccccc21 | -36
16 | CCOC(=O)C1=C(C)Nc2nnnn2C1c1c[nH]c2ccccc12 (centres unmarked) | -5.75
17 | O=C(O)Cc1c(C(=O)O)nnn1-c1cccc(C(F)(F)F)c1 | 19.1
18 | CC(CCc1ccccc1)NC(=O)C(=O)NCCO (centres unmarked) | 4.98
19 | CCC(C(=O)NC1CCCC1)N(C(=O)Cn1nnc(-c2ccc(C)o2)n1)c1cccc(OC)c1 (centres unmarked) | 5.54
20 | CN(Cc1ccccc1)C(=O)c1[nH]cnc1C(=O)N[C@@H](Cc1ccccc1)C(=O)OC(C)(C)C | -3.51
21 | CCc1cc2c(CN3CCN(CC)CC3)cc(=O)oc2cc1O | -8.81
22 | CCNC(=S)N(CCc1ccc(S(N)(=O)=O)cc1)C1CC(=O)N(c2ccccc2)C1=O (centres unmarked) | -3.93
23 | c1ccc2c(c1)Cn1nnnc1-2 | -5.83

Row | Structure (SMILES) | hERG current change (%, negative = inhibition) at 10uM [%]
24 | CC(C)NC(=O)/C(C#N)=C/c1ccc(N(C)C)o1 | 4.56
25 | CCCCS(=O)(=O)CC(COc1ccccc1)OC(=O)c1ccccc1 (centres unmarked) | -0.141
26 | C=CCSC1=N/C(=C\c2cccnc2)C(=O)N1c1ccc(OC)cc1 | 12.7
27 | O=C(NCCCN1CCOCC1)c1ccc(NC(=O)C2COc3ccccc3O2)cc1 (centres unmarked) | -33.1
28 | CC1CCCC(NC(=O)c2cc(S(=O)(=O)N3CCOCC3)ccc2F)C1C (centres unmarked) | -5.64
29 | O=C1N=NC(=O)N1c1ccccc1 | 7.9
30 | Cc1c(NS(=O)(=O)N2CCCCC2)c(=O)n(-c2ccccc2)n1C | 13.4
31 | O=C(CCl)N=c1sccn1Cc1ccc(Cl)cc1Cl | 51.5
32 | COC(=O)c1ccc(NC(=O)c2ccc3nccnc3c2)cc1 | 10.1
33 | Cc1ccc(-c2cc(C(=O)Nc3cccnc3)c3ccccc3n2)s1 | -6.86
34 | CCOc1cc(/C=C\c2nc(O)c([N+](=O)[O-])c(=O)[nH]2)ccc1OC(C)C | 24.5
35 | CCC(OC(=O)c1nsc(Cl)c1Cl)C(=O)NCCOC (centres unmarked) | 25.1
36 | COC(=O)c1ccc(NC(=O)CCN2CCOCC2)cc1 | 5.24
37 | COc1ccc(CNCC(=O)Nc2cccc(S(N)(=O)=O)c2)cc1.O=C(O)C(=O)O | 6.09
38 | CCc1nnc(NC(=O)C2=CCN(S(=O)(=O)c3ccccc3)CC2)s1 | 8.06
39 | COc1ccccc1N(CC(O)COc1ccc(C)cc1)S(=O)(=O)c1ccccc1 (centres unmarked) | 6.08
40 | O=C(c1ccco1)N1CCN(C2=NS(=O)(=O)c3ccccc32)CC1 | -3.13
41 | CN1CCCC(OC(=O)COc2ccc(Br)cc2)C1.Cl (centres unmarked) | -12.8
42 | COCCNC(=O)C(C)OC(=O)c1cc2occc2n1C (centres unmarked) | 0.269
43 | COc1ccccc1C(=O)Nc1ccc2c(c1)C(=O)NC2=O | 9.85
44 | COc1cc(-c2nc(CN3CCN(c4ncccn4)CC3)c(C)o2)ccc1F | -9.65
45 | Cn1cc(Cl)c(/C=C(\C#N)S(=O)(=O)c2ccccc2)n1 | 5.78
46 | Cc1ccc(OCC(=O)NNC(=O)c2cc3ccccc3o2)cc1C | 9.83

Row | Structure (SMILES) | hERG current change (%, negative = inhibition) at 10uM [%]
47 | CC(C)c1onc(C(=O)Nc2sc3c(c2C#N)CCC3)c1[N+](=O)[O-] | 4.59
48 | O=C(Nc1ccccc1F)c1cc(-c2ccco2)nc2ccccc12 | 16.6
49 | O=c1c2ccccc2nc(-c2ccc(F)cc2)n1NCc1ccccc1O | -9.98
50 | O=C(CN1C(=O)COc2ccccc21)Nc1ccccc1F | 11.8
51 | COc1ccc(/C=N/Nc2nnc(-c3ncc[nH]3)c3ccccc23)cc1 | -8.36
52 | CCCCOC(=O)Nc1ccc(S(=O)(=O)Nc2ccc([N+](=O)[O-])cc2)cc1 | 9.83
53 | Cc1ccc(-n2nc3c(=O)n(CC(=O)NCc4ccc(C)o4)nc(C)c3c2C)cc1 | 13.1
54 | O=C(/C=C/c1cccc(Cl)c1)N1CCC(Cc2ccccc2)CC1 | -12.5
55 | CCN(CCS(=O)(=O)c1ccc(Cl)cc1)C(=O)Nc1ccc(Cl)cc1 | -38.9
56 | CCCCn1c(=O)[nH]c(=O)c2c1nc(-c1ccc(CC)c([N+](=O)[O-])c1)n2C | 10.8
57 | COc1ccc(S(=O)(=O)NC(C(C)C)C(C)C)cc1OC | -5.38
58 | CCOC(=O)[C@H]1[C@H]2COc3ccc(Br)cc3[C@@H]2N2C(=O)CN(Cc3ccc(C)cc3)C(=O)[C@@]12C | 5.47
59 | C[C@@]12CCC3[C@@](CCC4[C@@]3(C)CCC[C@@]4(C)C(=O)O)(CC1=O)C2 (some centres unmarked) | 7.87
60 | COC(CNS(=O)(=O)c1cc2c3c(c1)CCN3C(=O)CC2)OC | 28.5
61 | COc1ccccc1CC(=O)Nc1ccc2c(c1)C(=O)NC2=O | 1.9
62 | CCOC(=O)C1CCN(C(=O)CN(c2ccc3c(c2)OCCO3)S(C)(=O)=O)CC1 | -4.03
63 | Cc1ccc(N/C(N)=N/c2nc(CSc3nnc(C)s3)cc(=O)[nH]2)c(C)c1 | -8.86
64 | CCN(CC(=O)Nc1ccccc1OC)C(=O)CSCC(=O)Nc1ccc(OC)cc1 | 0.652
65 | COC(=O)c1ccc(C2c3[nH]c4ccccc4c3C[C@H]3C(=O)N(C4CC4)CC(=O)N23)cc1 (some centres unmarked) | -21.3
66 | Cc1cccc(CN2CCN(C(=O)CCc3nnc(C4CCCCC4)o3)CC2)c1 | -14.9
67 | CCOC(=O)C(NC(=O)c1ccc(OC)cc1)(Nc1cc(C)on1)C(F)(F)F (centres unmarked) | -1.92
68 | Cn1cc(S(=O)(=O)N2CCN(c3ccccc3F)CC2)c(=O)n(C)c1=O | 23.3
69 | CCC(C(=O)NCc1ccccc1OC)n1nc(C)n2c(cc3occc32)c1=O (centres unmarked) | -6.27

Row | Structure (SMILES) | hERG current change (%, negative = inhibition) at 10uM [%]
70 | COC(=O)C1=C(C)NC(C)=C(C(=O)OCC2CCCO2)C1c1cccc(Cl)c1 (centres unmarked) | 2.87
71 | Cc1nn(-c2ccccc2)c(N)c1C1(O)C(=O)Nc2ccccc21 (centres unmarked) | -4.95
72 | Cc1cccc(-n2nnnc2SCC(=O)NCC2CCCO2)c1 (centres unmarked) | -1.36
73 | Cc1ccccc1Cn1nc(C)c(NC(=O)c2ccccc2)c1C | 7.59
74 | O=C(NCCc1ccc(F)cc1)c1cc2ccccc2oc1=O | 6.16
75 | COc1ccc(NC(=O)CN(C)C(=O)c2ccc(N3CCCCCC3)c([N+](=O)[O-])c2)cc1 | -51.6
76 | CN(C)c1ccc(C(=S)N2CCOCC2)cc1Br | 2.14
77 | O=C(Nc1ccncc1)c1ccc(N2CCCC2=O)cc1 | 1.98
78 | CCOC(=O)C1=C(C)N(CCCCCC(=O)O)C(=O)NC1c1ccccc1OS(=O)(=O)c1ccc(C)cc1 (centres unmarked) | -44.8
79 | O=S(=O)(/N=C(/Nc1ccc(Cl)cc1Cl)c1ccccc1)c1cccs1 | 4.1
80 | C/C(=C\CNc1ncnc2nc[nH]c12)CO | 10.4
81 | O=C(NN=C1CCN(Cc2ccccc2)CC1)c1cc2ccccc2cc1O | 4.92
82 | O=C(Nc1ccc2c(c1)OCO2)Nc1ccc(Cl)cc1Cl | 9.53
83 | CCOC(=O)N1CCN(CC(=O)Nc2nc3ccc(OC)cc3s2)CC1 | -39.8
84 | N#C/C(=C/c1ccncc1)c1nc2ccccc2s1 | 2.23
85 | Cc1ccc(C(=O)COC(=O)C(C)N2C(=O)C3C4CCC(C4)C3C2=O)cc1C (centres unmarked) | -23
86 | O=C(O)CCCn1cc(NC(=O)COc2ccccc2F)cn1 | 31.6
87 | O=C(NCCc1ccccc1)C(=O)c1c(-c2ccccc2)cc2ccccn12 | 14.3
88 | COc1ccccc1OCCn1cc(/C=N/NC(N)=S)c2ccccc21 | 4.42
89 | O=C(O)/C=C\C(=O)Nc1ccc(N2CCN(c3ccc(Cl)cc3)CC2)cc1 | 28.2
